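Cultured in 96-well plates, cells were exposed to test compound for 48 hours across five concentrations. GI50: concentration for 50% inhibition of growth.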 Activity calls are given as the source filed them. No stated cut-off is given here; in the data, active = GI50 up to about 1.1 µM and inactive = higher.
system: NCI-H322M; assay: inhibition of tumour cell growth, NCI panel, 48 h

| Structure (SMILES) | GI50 |
| --- | --- |
| CNC(=O)OCc1c2ccncc2c(C)c2c1[nH]c1ccc(OC)cc12 | active: 0.547 µM |
| Cc1cc(Cl)ccc1OCC(=O)Oc1c(Cl)c(Cl)c(Cl)c(Cl)c1Cl | inactive: 20.8 µM |
| CCNc1cc2c(cc1O)CC[C@@H]1[C@@H]2CC[C@]2(C)[C@@H](O)CC[C@@H]12 | active: 0.644 µM |
| COc1ccc(C2C3=C(COC3=O)Oc3cc4c(cc32)OCO4)cc1OC (stereo not given) | inactive: 2.69 µM |
| O=C1C(c2c(O)[nH]c3ccccc23)=Nc2ccc(Br)cc21 | inactive: 28.4 µM |
| COc1cccc2c3cccc(OC)c3c3[nH]cnc3c12 | inactive: 3.6 µM |
| O=C(c1ccc(Cl)cc1)N(C(=S)N1CCN(c2ccccc2)CC1)c1ccccc1 | inactive: > 100 µM |
| CCOC(=O)c1sc2c(c1OC(=O)c1ccc(OC)cc1)c(=O)n(-c1ccccc1)c(=S)n2-c1ccccc1 | inactive: > 100 µM |
| CN(C)C1(C#N)CCC2(CC1)OCCO2 | inactive: > 100 µM |
| C#CC1=CC(=O)C(OC)=CC1=O | inactive: > 100 µM |
| O=[N+]([O-])c1ccc(CN(CCCl)OCCCl)cc1 | inactive: > 100 µM |
| COc1cc(C)cc2c1c(=O)c1ccccc1n2C | inactive: 49.4 µM |
| COc1ccc(-n2c(N)c(C#N)c(C#N)c2-c2ccco2)cc1 | inactive: > 100 µM |
| O=S(=O)(CC(Cl)c1ccccc1)c1nc2ccccc2s1 (stereo not given) | inactive: 18.4 µM |
| O=C1CS(=O)(=O)C(c2cccc(Oc3ccccc3)c2)N1c1cc(Cl)ccc1Cl (stereo not given) | inactive: 45 µM |
| COC(=O)/C(=N\NC(=O)c1ccccc1O)C(C#N)c1ccc(Cl)cc1 (stereo not given) | inactive: 56.4 µM |
| O=C(/N=C(/Nc1ccccc1)SCCS/C(=N\C(=O)c1ccccc1)Nc1ccccc1)c1ccccc1 | inactive: > 100 µM |
| COC1/C(=C\C(C)=O)c2ccccc2N1C(C)=O (stereo not given) | inactive: > 100 µM |
| CS(=O)(=O)N1CC(CI)c2ccc(O)cc21 (stereo not given) | inactive: 4.94 µM |
| Cc1cc2c(C)n(Cc3ccccc3Cl)nc2c(C(=O)O)c1C | inactive: > 100 µM |
| O=C(CC(=O)N1N=C(N2CCCCC2)CC1c1ccccc1)Nc1ccccc1 (stereo not given) | inactive: > 100 µM |
| O=[N+]([O-])c1ccc(/N=N/c2c(O)ccc3ccccc23)cc1 | inactive: > 100 µM |
| ClCCCc1ccccc1C1=NCCc2ccccc21 | inactive: > 100 µM |
| CC1=NN(c2ccccc2)C(=O)C1/N=N/c1ccc(Br)c(C)c1 (stereo not given) | inactive: > 100 µM |

| Structure (SMILES) | GI50 |
| --- | --- |
| CCOC(=O)c1cnc2c(ccc3ncccc32)c1OCC | inactive: > 100 µM |
| COC(=O)[C@H](Cc1ccccc1)NC(=O)NCCN(CCNC(=O)N[C@@H](Cc1ccccc1)C(=O)OC)C(=O)N[C@@H](Cc1ccccc1)C(=O)OC | inactive: 21.9 µM |
| COc1ccc(/C=N/Nc2nnc3c(n2)c2ccccc2c2nn(-c4ccccc4Cl)nc23)cc1 | inactive: > 100 µM |
| CCOC(=O)c1oc2ccc(OC)c3c2c1CCC3 | inactive: > 100 µM |
| CC1(C)OP(=O)(O)C=C1Sc1ccc([N+](=O)[O-])cc1[N+](=O)[O-] | inactive: > 100 µM |
| Cc1cccc(C)c1NC(=S)NC=C1C(=O)c2ccccc2C1=O | inactive: 30.8 µM |
| Oc1c(-c2ccccc2)nc2ccccn12 | inactive: > 100 µM |
| CCOc1ccccc1NC(=O)CC1SC(Nc2ccc([N+](=O)[O-])cc2)=NC1=O (stereo not given) | inactive: 28.1 µM |
| COC(=O)CSc1ccccc1 | inactive: > 100 µM |
| O=S(=O)(/N=C(\NO)Nc1ccc(Cl)cc1)C1CC=C(c2ccon2)S1 (stereo not given) | inactive: 46.1 µM |
| C=C1CC(Cn2ccc(=O)[nH]c2=O)(c2ccc(OC)cc2)OC1=O (stereo not given) | inactive: 33.9 µM |
| CCOC(=O)c1sc2c(sc(=O)n2-c2ccccc2)c1O | inactive: > 100 µM |
| O=C(CCCN1CCC(Nc2ccc(F)cc2)(c2nnnn2C2CCCCC2)CC1)c1ccc(F)cc1 | inactive: 5.7 µM |
| CSC(=S)Nc1cccc(C)n1 | inactive: > 100 µM |
| COc1cc2ncnc(Nc3cccc(Br)c3)c2cc1OC | active: 1.09 µM |
| CCOC(=O)NC(NC1=NCCS1)(C(=O)OCC)C(F)(F)F (stereo not given) | inactive: > 100 µM |
| CCCC(=O)OCOC(=O)N(C)/N=N/c1ccc(C(=O)OCC)cc1 | inactive: 32.5 µM |
| CCOC(=O)C(=O)/C=C(\C)Nc1c(NC2OCC(OC(C)=O)C(OC(C)=O)C2OC(C)=O)nc(SC)[nH]c1=O (stereo not given) | inactive: > 100 µM |
| NC(=O)C(N)Cc1ccc(O)cn1 (stereo not given) | inactive: > 100 µM |
| CC[n+]1[b-](C(C)(C)C)n(/N=C(\C)C(C)(C)C)[b-](C(C)(C)C)[n+]1CC | inactive: > 100 µM |
| CCCCCCCCCCCCCCCCCc1cccc(OCOCCOC)c1C(=O)O | inactive: 20 µM |
| CCOC(=O)c1c(NS(=O)(=O)c2ccc(C)cc2)sc2c1CCCC2 | inactive: 43.9 µM |
| NC(Cc1ccc(OCc2ccccc2)cn1)C(=O)O (stereo not given) | inactive: > 100 µM |
| COC(=O)C(CCSC)NC(=O)CSc1nnc(COc2ccc(Cl)cc2)n1-c1ccccc1 (stereo not given) | inactive: 16.1 µM |

| Structure (SMILES) | GI50 |
| --- | --- |
| c1ccc2cc(CN3CCC(C4CCN(Cc5ccc6ccccc6c5)CC4)CC3)ccc2c1 | inactive: 5.27 µM |
| O=C(NCCCCNc1cccccc1=O)OCc1ccccc1 | inactive: > 100 µM |
| CCCN(CCC)C(=S)N/N=C/c1ccccn1 | active: < 0.01 µM |
| CC(C)(C)c1cc2c(O)c(c1)Cc1cc(C(C#N)(Cc3ccc4ccccc4c3)Cc3ccc4ccccc4c3)cc(c1O)Cc1cc(C(C)(C)C)cc(c1O)Cc1cc(C(C#N)(Cc3ccc4ccccc4c3)Cc3ccc4ccccc4c3)cc(c1O)C2 | inactive: > 100 µM |
| O=C1C=CC(=O)c2c1ccc1c3ccccc3n(CCCCCCCCCCCCn3c4ccccc4c4ccc5c(c43)C(=O)C=CC5=O)c21 | inactive: > 100 µM |
| CCC(CON(C)c1ccccc1)(SC)SC | inactive: > 100 µM |
| CC(=O)C1(O)CC2(c3ccccc3)C(=O)C1(c1ccccc1)C(c1ccccc1)=C2c1ccccc1 (stereo not given) | inactive: > 100 µM |
| COc1ccc(C2=C3SC=c4ccccc4=C3ON=C2c2ccccc2)cc1 | inactive: > 100 µM |
| CSc1nc(Br)nc2c1ncn2C1CC(Oc2ccc(C)cc2)C(COc2ccc(C)cc2)O1 (stereo not given) | inactive: > 100 µM |
| NCCNC(=O)c1cccc2cc3ccccc3nc12 | inactive: 2.87 µM |
| CC(=O)O[C@H]1C[C@](C)(O)[C@@]23CC([C@@H](OC(=O)C(C)(C)O)[C@@H](OC(C)=O)C2(COC(=O)c2ccccc2)[C@H]1OC(C)=O)C(C)(C)O3 (stereo not given in full) | inactive: > 100 µM |
| OC(c1ccccc1)(c1cccnc1)C(O)(c1ccccc1)c1cccnc1 (stereo not given) | inactive: > 100 µM |
| CN(C)c1ccc(C(=NNC(=O)c2cc3ccccc3[nH]2)c2ccc(N(C)C)cc2)cc1 | active: 0.933 µM |
| [N-]=[N+]=CC(=O)C1(C(=O)C=[N+]=[N-])CC1 | inactive: > 100 µM |
| N#CC(/C(=N\NC(N)=S)C(=O)NC1C2CC3CC(C2)CC1C3)c1ccc(Cl)cc1 (stereo not given) | inactive: > 100 µM |
| CCSc1c(C)c2c(n(Cc3ccc(OC)cc3)c1=O)Cc1ccccc1C2 | inactive: 21.3 µM |
| CCOC(=O)c1c(-c2ccc(Cl)cc2)c(C#N)c(=S)n(C2OC(COC(C)=O)C(OC(C)=O)C(OC(C)=O)C2OC(C)=O)c1-c1ccccc1 (stereo not given) | inactive: > 100 µM |
| Cc1cc(OC(=O)NCn2cc(-c3ccccc3)nn2)ccc1Cl | inactive: > 100 µM |
| O=C1CCC2(c3ccc(Cl)cc3)Nc3ncncc3N12 (stereo not given) | inactive: > 10 µM |
| CC(=O)[C@@]1(C)CC2(CCN(C)CC2)OC1C (stereo not given in full) | inactive: > 100 µM |
| CC(C)=CC(=O)Cc1nc2cc(C)c(C)cc2[nH]c1=O | inactive: > 100 µM |
| OC(c1ccc2c(c1)OCO2)c1ccc2c(c1)OCO2 | inactive: > 100 µM |
| CN[C@H](C)[C@@H](OC)c1ccccc1 | inactive: > 100 µM |
| COc1ccc(P2(=S)OC(C)(C)C(C)(C)O2)cc1 | inactive: > 100 µM |

| Structure (SMILES) | GI50 |
| --- | --- |
| CCN(CC)CCCC(C)Nc1c(Sc2cnc3cc(Cl)ccc3c2NC(C)CCCN(CC)CC)cnc2cc(Cl)ccc12 (stereo not given) | inactive: 2.35 µM |
| COC1=CC(=O)c2c(cc(COP(=O)(OCC3OC(n4cc(F)c(=O)[nH]c4=O)CC3O)N(C)CCCCCl)n2C)C1=O (stereo not given) | inactive: 3.7 µM |
| CC(=O)c1cccc(NC(=O)C(=O)NNc2nnc(S)n2N)c1 | inactive: 13.1 µM |
| O=[N+]([O-])c1ccc(N/N=C2\C=CCCC2)c([N+](=O)[O-])c1 | inactive: 28.2 µM |
| COc1cc2c(cc1C1COc3cc4occc4cc3C1=O)OCO2 (stereo not given) | inactive: > 100 µM |
| COc1cc2c(cc1OC)C1=Cc3cc(OC)c(OC)cc3C(C)N1C=C2 (stereo not given) | inactive: 61.4 µM |
| Cc1cc([C@H](C#N)c2nc3ccccc3s2)nc(Cl)n1 | inactive: 21.8 µM |
| CC1=C2C(=O)c3ccccc3C(=O)[C@H]2[C@H]2CCO[C@H]2O1 | inactive: > 100 µM |
| O=c1[nH]ncc2[nH]c3c(c12)CCCc1ccccc1-3 | inactive: 96.2 µM |
| Cc1ccc(N2CCc3c(C)c(C#N)c4nc5ccccc5n4c32)cc1 | inactive: > 100 µM |
| CSc1nc(NC2OCC(OC(C)=O)C(OC(C)=O)C2OC(C)=O)c(/N=C(\C)C(C)=O)c(=O)[nH]1 (stereo not given) | inactive: > 100 µM |
| O=S(=O)(O)CCCC1S(=O)(=O)OCCOS1(=O)=O | inactive: > 100 µM |
| O=[N+]([O-])c1ccc(/N=N/c2c(O)ccc3cc(S(=O)(=O)O)ccc23)cc1 | inactive: > 100 µM |
| c1ccc(/C(=N\Nc2ccccn2)c2ccccn2)cc1 | active: 0.519 µM |
| O=C(NC1CCC[C@H]1OC(=O)c1ccccc1)c1ccccc1 (stereo not given in full) | inactive: > 100 µM |
| CO/C=C(/C(=O)OC)c1ccccc1[C@@H]1CC1c1cccc(F)c1 (stereo not given in full) | inactive: 37.2 µM |
| FC(F)(F)c1ccc2c(c1)nc(-c1ccccc1)n2CC1CCCN2CCCCC12 (stereo not given) | inactive: 21.1 µM |
| CC(C)(C)C1CCC(O)(c2ccccc2)CC1 (stereo not given) | inactive: > 100 µM |
| C/C(=C(/C)c1cc[n+](C)cc1)c1cc[n+](C)cc1 | inactive: > 75 µM |
| COC(=O)c1cc(C#Cc2cc(OC)ccc2OC)ccc1OC | inactive: > 100 µM |
| Nc1cc(OCC2CCCCC2)nc(N)n1 | inactive: > 100 µM |
| COc1ccc(/C=C/c2cc(OC)c(OC(C)=O)c(OC)c2)cc1 | inactive: 36 µM |
| CSCC[C@H]1C(=O)N=C(N)N1C(=O)OCc1ccccc1 | inactive: > 100 µM |

Source: ChEMBL document CHEMBL1201862, “PubChem BioAssay data set” (2004)
